Results as given in PubChem BioAssay AID504333 (National Center for Advancing Translational Sciences (NCATS), 2011).
Where “and” joins values, the source holds several entries; their conditions need not be identical. Equal entries are not always repeated. The whole screen tested about 360,000 compounds, of which about 16,000 (4.4%) were called active. Inconclusive means that the source gave no clear call. Such entries were picked first, then a sample of the others. The call rests on the fitted dose curve; in most records, active means well fitted inhibition curve with a large enough effect; inconclusive means small, poorly fitted or top-dose-only effect; inactive means no such curve, though single readings can be large or run the other way. A potency beside an inconclusive call is a rough fit, not a confirmed value.

The compounds below were run against Bromodomain adjacent to zinc finger domain protein 2B (Homo sapiens) (UniProt Q9UIF8) (assay: qHTS Assay for Inhibitors of BAZ2B). Conditions: AlphaScreen BAZ2B-H3K14Ac peptide displacement; series mostly up to 114 µM.
How it was run: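 Multi-concentration screen (max 110 uM) measuring displacement of acetylated histone H3 peptide from BAZ2B by AlphaScreen, using 50 nM protein, 50 nM peptide and 10 ug/mL streptavidin donor plus Ni-chelate acceptor beads.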
Further: nearly all actives have a fitted effect of over 60% in size.
Potency means the concentration at half of the fitted maximal effect; tags describe the fitted curve by direction and shape.

UniProt Q9UIF8, sequence (Q9UIF8 whole entry, looked up, the tested form may be a part): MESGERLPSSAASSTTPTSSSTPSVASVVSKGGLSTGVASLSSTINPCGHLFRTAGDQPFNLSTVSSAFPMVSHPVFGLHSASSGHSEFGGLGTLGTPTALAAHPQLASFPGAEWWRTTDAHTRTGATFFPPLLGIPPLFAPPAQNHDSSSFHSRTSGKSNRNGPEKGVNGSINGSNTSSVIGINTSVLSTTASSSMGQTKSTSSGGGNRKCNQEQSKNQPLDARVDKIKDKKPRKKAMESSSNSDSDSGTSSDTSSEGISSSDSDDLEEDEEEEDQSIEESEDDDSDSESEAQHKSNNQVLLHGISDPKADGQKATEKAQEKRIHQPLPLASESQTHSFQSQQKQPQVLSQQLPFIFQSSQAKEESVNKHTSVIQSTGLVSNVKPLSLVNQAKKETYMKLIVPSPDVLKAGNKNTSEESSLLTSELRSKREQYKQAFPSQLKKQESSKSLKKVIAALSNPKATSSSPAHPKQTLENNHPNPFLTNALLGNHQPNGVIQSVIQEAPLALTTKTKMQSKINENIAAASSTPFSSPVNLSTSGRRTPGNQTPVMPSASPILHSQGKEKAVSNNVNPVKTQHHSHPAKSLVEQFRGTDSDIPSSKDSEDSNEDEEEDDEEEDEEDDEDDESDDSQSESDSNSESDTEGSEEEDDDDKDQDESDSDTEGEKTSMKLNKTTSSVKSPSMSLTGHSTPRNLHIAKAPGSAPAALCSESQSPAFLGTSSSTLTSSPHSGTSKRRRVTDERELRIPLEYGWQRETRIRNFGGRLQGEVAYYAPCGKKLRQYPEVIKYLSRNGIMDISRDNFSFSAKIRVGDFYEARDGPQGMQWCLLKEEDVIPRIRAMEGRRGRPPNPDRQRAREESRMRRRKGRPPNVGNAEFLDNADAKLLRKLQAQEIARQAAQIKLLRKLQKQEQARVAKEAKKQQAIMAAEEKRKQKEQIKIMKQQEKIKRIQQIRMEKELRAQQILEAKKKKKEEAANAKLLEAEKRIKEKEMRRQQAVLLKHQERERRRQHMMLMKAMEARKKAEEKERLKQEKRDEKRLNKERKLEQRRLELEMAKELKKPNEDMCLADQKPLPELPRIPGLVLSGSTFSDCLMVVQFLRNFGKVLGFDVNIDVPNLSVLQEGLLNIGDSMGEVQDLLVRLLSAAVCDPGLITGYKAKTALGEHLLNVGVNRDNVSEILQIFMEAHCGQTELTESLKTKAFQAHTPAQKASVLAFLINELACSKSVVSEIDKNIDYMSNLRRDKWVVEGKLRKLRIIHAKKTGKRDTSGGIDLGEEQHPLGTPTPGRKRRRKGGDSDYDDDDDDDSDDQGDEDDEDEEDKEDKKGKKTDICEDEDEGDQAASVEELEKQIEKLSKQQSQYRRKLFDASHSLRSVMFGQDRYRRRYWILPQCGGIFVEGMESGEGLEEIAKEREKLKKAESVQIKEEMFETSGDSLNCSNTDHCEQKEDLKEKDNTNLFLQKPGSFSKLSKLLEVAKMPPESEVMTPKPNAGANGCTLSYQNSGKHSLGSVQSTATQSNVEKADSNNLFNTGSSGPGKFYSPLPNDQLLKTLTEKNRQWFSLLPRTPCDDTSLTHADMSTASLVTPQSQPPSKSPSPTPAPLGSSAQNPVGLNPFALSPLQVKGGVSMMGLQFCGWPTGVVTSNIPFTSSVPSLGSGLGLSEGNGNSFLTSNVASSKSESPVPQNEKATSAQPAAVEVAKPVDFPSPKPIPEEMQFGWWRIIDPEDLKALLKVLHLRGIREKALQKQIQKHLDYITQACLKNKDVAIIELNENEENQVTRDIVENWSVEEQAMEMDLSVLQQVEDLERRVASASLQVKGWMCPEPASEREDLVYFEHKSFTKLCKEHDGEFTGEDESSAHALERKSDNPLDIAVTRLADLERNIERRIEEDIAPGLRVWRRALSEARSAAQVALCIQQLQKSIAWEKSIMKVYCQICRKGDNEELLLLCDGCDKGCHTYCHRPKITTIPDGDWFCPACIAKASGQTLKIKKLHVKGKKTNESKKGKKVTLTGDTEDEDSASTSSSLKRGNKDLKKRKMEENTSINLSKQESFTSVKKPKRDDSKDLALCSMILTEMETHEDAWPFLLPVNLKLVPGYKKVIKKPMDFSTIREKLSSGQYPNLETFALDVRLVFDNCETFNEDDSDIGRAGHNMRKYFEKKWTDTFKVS

Row | Structure (SMILES) | Potency
1 | CCOc1ccc(NC(=O)NCc2ccc3c(c2)OCO3)cc1 | inactive
2 | CCOc1cccc(OCCCn2c(-c3ccc(Br)cc3)nc3ccccc3c2=O)c1 | inactive
3 | O=C(c1ccco1)[C@@H]1[C@@H]2C(=O)N(c3ccc(F)cc3)C(=O)[C@@H]2C2c3ccccc3C=CN21 (some centres undefined) | inconclusive: 79.4 µM [inhibitor, single point]
4 | O=C(O)CSc1cc(C(F)(F)F)nc(-c2ccccn2)n1 | inconclusive: 89.1 µM [inhibitor, single point]
5 | Cc1ccc(S(=O)(=O)Cc2ccc(C(=O)NCc3ccc4c(c3)OCO4)o2)cc1 | inconclusive: 50.1 µM [inhibitor, partial curve]
6 | Cc1ccc(-c2cc3c(N4CCN(c5cc(C)ccc5C)CC4)nccn3n2)cc1 | inconclusive: 7.94 µM [inhibitor, full curve]
7 | COc1ccc(OC)c(NC2c3ccccc3C(=O)N2Cc2ccc3c(c2)OCO3)c1 (centres undefined) | active: 35.5 µM
8 | Cc1cc(-c2ccccc2)nc(N/N=C/c2ccc(O)cc2)n1 | inactive
9 | CCC(=NCc1ccc(Cl)c(Cl)c1)c1nc(-c2ccco2)oc1O | active: 12.6 µM
10 | Cc1cccc(/C=C2\Sc3ccc(C(=O)NCC4CCCO4)cc3N(C)C2=O)c1 (centres undefined) | inconclusive: 44.7 µM [inhibitor, partial curve]
11 | CC(=O)c1cccc(S(=O)(=O)NC(C)C2CC3CCC2C3)c1 (centres undefined) | inactive
12 | O=C(N/N=C/c1cc(Cl)cc([N+](=O)[O-])c1O)c1ccc2c(c1)OCO2 | active: 35.5 µM
13 | Cc1ccc(C(=O)Nc2ccc(O)cc2C(=O)O)cc1C | active: 79.4 µM
14 | COc1ccc(-n2c(C)c(C)c3c(NCCCN(C)C)ncnc32)cc1 | inconclusive: 79.4 µM [inhibitor, single point]
15 | O=C(NCCc1ccccc1)c1ccc(NC2=NC3CS(=O)(=O)CC3S2)cc1 (centres undefined) | inconclusive: 89.1 µM [inhibitor, single point]
16 | CCCCc1cc(-c2n[nH]c(=S)o2)c2ccccc2n1 | inconclusive: 79.4 µM [inhibitor, partial curve]
17 | CCCCn1c(NC(=O)c2ccccc2)c(C#N)c2nc3ccccc3nc21 | inactive
18 | COc1ccc(CCNc2ccc(S(=O)(=O)N3CCCC3)cc2[N+](=O)[O-])cc1 | inconclusive: 8.91 µM [inhibitor, full curve]
19 | O=C(COc1ccc(F)cc1)NCCc1nc2ccccc2[nH]1 | inactive
20 | Cc1ccc(-c2nnc(SCC(=O)NCc3ccccc3)nc2-c2ccc(C)cc2)cc1 | inconclusive: 14.1 µM [inhibitor, full curve]
21 | CNS(=O)(=O)c1cc(-c2nnc(Nc3cc(C)ccc3C)c3ccccc23)ccc1C | inactive
22 | CC(C)(C)c1ccc(CSc2nnc(-c3ccccn3)n2Cc2ccco2)cc1 | inconclusive: 89.1 µM [inhibitor, single point]
23 | CCOC(=O)C1=C(C)N=c2s/c(=C\c3ccc(OCC(=O)O)cc3)c(=O)n2C1c1ccc(OC(C)C)cc1 (centres undefined) | inconclusive: 56.2 µM [inhibitor, partial curve]

Row | Structure (SMILES) | Potency
24 | COc1cc(NC(=O)c2cccc(C)c2)c(OC)cc1NC(=O)CN1CCCCC1 | inconclusive: 50.1 µM [inhibitor, partial curve]
25 | CC(Oc1ccccc1)C(=O)N=Nc1c(O)[nH]c2ccc([N+](=O)[O-])cc12 (centres undefined) | inconclusive: 56.2 µM [inhibitor, single point]
26 | Cc1ccc2oc(-c3cccc(NC(=O)c4sc5c([N+](=O)[O-])cccc5c4Cl)c3)nc2c1 | inactive
27 | CCN(CC)c1ccc(/C=C2/SC(=O)N(C(C)C)C2=O)o1 | inconclusive: 44.7 µM [inhibitor, partial curve]
28 | CCN1CCN(c2ccc(S(=O)(=O)N3CCCCC3)cc2NC(=O)/C=C/c2cccc(OC)c2OC)CC1 | inconclusive: 50.1 µM [inhibitor, partial curve]
29 | CCc1cc(/C(Cc2ccccn2)=N\O)c(O)cc1O | inconclusive: 79.4 µM [inhibitor, partial curve]
30 | Cc1ccc2nc(-c3ccc(NC(=S)NC4CC(C)(C)NC(C)(C)C4)cc3)sc2c1 | inactive
31 | CC1(C)CC(=O)C2=C(C1)Nc1ccccc1S2 | inconclusive: 28.2 µM [inhibitor, full curve]
32 | COC(=O)CCCC1=CC2=C(c3ccccc3)C(=O)C(C)(OC(=O)C3CCCC3)C(=O)C2=CN1Cc1ccc2c(c1)OCO2 (centres undefined) | inconclusive: 35.5 µM [inhibitor, partial curve]
33 | COc1cc(OC)c(NC(=O)Cn2c(SCc3ccccc3F)nc3cccnc32)cc1Cl | inactive
34 | Cc1ccc(C)c(Oc2coc3cc(OCC(=O)Nc4ccccc4C(C)C)ccc3c2=O)c1 | inactive
35 | C/C=C/c1ccc(OCC(=O)N2CCc3cc(OC)c(OC)cc3C2)c(OC)c1 | inconclusive: 79.4 µM [inhibitor, single point]
36 | Cc1ccc(NC(=O)CNc2cc(S(=O)(=O)N3CCOCC3)ccc2NCC2CCCO2)cc1F (centres undefined) | inconclusive: 39.8 µM [inhibitor, partial curve]
37 | COc1ccccc1CNC(=O)C1CCN(S(=O)(=O)c2ccc3[nH]c(=O)ccc3c2)CC1 | inactive
38 | Cc1cc(C(=O)C(=O)N(C)C)c(C)n1-c1ccc(Cl)c(Cl)c1 | inconclusive: 79.4 µM [inhibitor, single point]
39 | Cc1ccc(NC(=O)CCn2c(=O)[nH]c3ccsc3c2=O)cc1 | inactive
40 | COC(=O)c1ccc(NCC(=O)N2CCCCCC2)cc1 | inconclusive: 79.4 µM [inhibitor, single point]
41 | CCc1nn2c(N)c(/C=C3\C=Nc4ccccc43)c(=O)nc2s1 | inconclusive: 89.1 µM [inhibitor, single point] and inconclusive: 79.4 µM [inhibitor, single point]
42 | O=C(COc1ccc([N+](=O)[O-])cc1)Nc1nnc(-c2cccnc2)s1 | inconclusive: 20 µM [inhibitor, full curve]
43 | CN(Cc1ccsc1)C(=O)CCc1nnc(CCCc2ccccc2)o1 | inactive
44 | COc1cc(Cl)c(C)cc1NC(=O)c1cccc(OC)c1OC | inactive
45 | COc1ccccc1CNC(=O)CSCc1nc(-c2ccc(OC)c(OC)c2)oc1C | inconclusive: 70.8 µM [inhibitor, single point]
46 | O=C(NCc1ccccc1Cl)c1cc(C(=O)C2CC2)c[nH]1 | inactive

Row | Structure (SMILES) | Potency
47 | CCCCNC(=O)c1sc(=S)n2c1[nH]c(=O)c1ccccc12 | active: 50.1 µM
48 | C#CCCOC(=O)N1C2=NC(C(=O)OC)=C(C(=O)OC)[C@@H]3N(Cc4ccccc4)c4ccccc4[C@]23C[C@H]1C(=O)OC | inconclusive: 1.26 µM [inhibitor, full curve, poor fit]
49 | CCOCc1nnc(NC(=O)CSc2ccccc2)s1 | inactive
50 | CCOC(=O)N1CCN(S(=O)(=O)c2ccc(C(=O)N(CCN(CC)CC)c3nc4c(C)cccc4s3)cc2)CC1 | inconclusive: 39.8 µM [inhibitor, partial curve]
51 | Cc1ccc2[nH]c(C)c(CCNC(=O)c3c(N)no[n+]3[O-])c2c1 | inconclusive: 79.4 µM [inhibitor, partial curve, poor fit]
52 | C#CCOCCOCCOCCNc1nc(N2CCN(C(=O)CCCCCCCCCCNC(=O)[C@H]([C@@H](C)CC)n3cc(CCCCCN)nn3)CC2)nc(N2CCN(C(=O)CCCCCCCCCCNC(=O)[C@H](CO)n3cc(CCCCCN)nn3)CC2)n1 | inconclusive: 50.1 µM [inhibitor, partial curve]
53 | COc1ccc(N=C2C(=Nc3ccc(OC)cc3)N(c3ccc(OC)cc3)C(=S)N2c2ccccc2)cc1 | active: 2 µM
54 | CCc1cc(-c2[nH]ncc2-c2ccc3c(c2)OCO3)c(O)cc1O | active: 31.6 µM
55 | Cc1cccnc1NC(=S)Nc1ccc(Br)cc1Cl | active: 50.1 µM
56 | CCN(CCn1cccn1)Cc1c(C(=O)N2C[C@@H](C)O[C@@H](C)C2)nc2ccc(Cl)cn12 | inconclusive: 89.1 µM [inhibitor, single point]
57 | Cc1oc(-c2ccccc2Cl)nc1CS(=O)CC(=O)NCc1ccccc1Cl (centres undefined) | inconclusive: 28.2 µM [inhibitor, full curve]
58 | COc1cc(/C=N\Nc2nc(-c3cccs3)c(NC(C)=O)s2)ccc1O | inconclusive: 39.8 µM [inhibitor, partial curve]
59 | COc1ccccc1N1CCN(C(=O)c2ccc3nc(-c4ccco4)c(-c4ccco4)nc3c2)CC1 | inconclusive: 44.7 µM [inhibitor, partial curve]
60 | CCc1c(C)sc(NC(=O)c2cnn3cccnc23)c1C#N | inactive
61 | COc1cc(NC(=O)C/C(C)=N/NC(=O)C(=O)NC2CCCCC2)c(OC)cc1Cl | inconclusive: 79.4 µM [inhibitor, single point]
62 | O=C(CSc1nc2c([nH]c3ccccc32)c(=O)n1-c1ccc(F)cc1)NCc1ccc(F)cc1 | inactive
63 | CC(C)OCCCNC(=O)CCCn1c(SCC(N)=O)nc2c(sc3ccccc32)c1=O | inactive
64 | Cc1nnc(NC(=O)CN2C(=O)c3ccccc3S2(=O)=O)s1 | inactive
65 | Cc1ccc(Sc2ncccc2COC(=O)Nc2ccccc2)cc1 | inactive
66 | Cc1nc(-c2ccc(S(=O)(=O)N(Cc3ccccc3)C(C)C)cc2)co1 | inactive
67 | COc1cc(CNCCCN2CCOCC2)cc(Br)c1OCc1ccc(Cl)cc1 | inactive
68 | COc1ccc(C2c3ccc4ccccc4c3Oc3ncn(CCO)c(=N)c32)cc1 (centres undefined) | inconclusive: 79.4 µM [inhibitor, single point]
69 | O=C(CN1CCN(S(=O)(=O)c2ccc(Cl)s2)CC1)N1CCOCC1 | inactive
